{"source": "PubChem BioAssay AID686970", "about": "(National Center for Advancing Translational Sciences (NCATS), 2013)", "note": "Out of some 360,000 compounds screened, about 6,000 (1.7%) were called active. The inconclusive results got no clear call from the source; some entries with a clear call stand among them for comparison. Calls follow the shape of the dose curve; as a rule, active = well fitted cell-killing curve with a large enough effect; inconclusive = small, poorly fitted or top-dose-only effect, or effect the other way; inactive = flat fitted curve, though single readings scatter. No potency is given beside an inconclusive call; the fits are too rough. Potency is read from the fitted curve at half-maximal effect; tags tell the direction and shape of the fitted curve."}
{"assay": "qHTS for induction of synthetic lethality in tumor cells producing 2HG: qHTS for the HT-1080-NT fibrosarcoma cell line;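 also: NT is the 2HG producing partner of a matched IDH1 knockdown line; nearly all actives have a fitted effect of over 55% in size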;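 as to activity, negative = less viability: 0% = DMSO-treated cells and -100% = media-only wells without cells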", "conditions": "HT-1080-NT fibrosarcoma viability, CellTiter-Glo ATP luminescence, 48 h; activity, negative = less viability: at 46.1 µM (top of the series) unless noted", "method_in_brief": "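HT-1080-NT fibrosarcoma cells (2HG-overproducing), 750 cells/well in RPMI with 5% FBS, dosed after 2 h and incubated 48 h at 37C. CellTiter-Glo luminescence normalized to DMSO and no-cell wells; concentration-response curves fitted and classed.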"}
{"molecule": "COc1ccc2oc(/C=C/N(C)C)c(C(=O)c3ccc(Cl)cc3)c2c1", "Potency": "inconclusive [cytotoxic, single point]"}
{"molecule": "CCOc1ccccc1CNC(=O)C1Cc2cc(S(=O)(=O)N3CCCCC3)ccc2N1C(C)=O", "note": "(configuration not stated)", "activity, negative = less viability": "inactive: -17%"}
{"molecule": "Cc1cccn2cc(COc3ccc(-c4ccccc4)cc3)nc12", "Potency": "inconclusive [cytotoxic, partial curve]"}
{"molecule": "CCc1ccccc1NC(=O)C1COc2ccccc2O1", "note": "(configuration not stated)", "Potency": "inconclusive [rising, partial curve]"}
{"molecule": "CSc1ccccc1NC(=O)NCCCl", "Potency": "inconclusive [rising, partial curve]"}
{"molecule": "CCN(CC)C(=O)C1CCN(S(=O)(=O)c2cccc3nonc23)CC1", "activity, negative = less viability": "inconclusive: -1.9% [cytotoxic]"}
{"molecule": "Cc1onc(-c2c(Cl)cccc2Cl)c1C(=O)N1CCN(c2ccccc2F)CC1", "activity, negative = less viability": "inactive: -2.82%"}
{"molecule": "O=C(NCCc1cccs1)C1CC1", "activity, negative = less viability": "inactive: 8.84%"}
{"molecule": "Nn1c(SCC(=O)Nc2ccc(OC(F)F)cc2)nnc1-c1ccco1", "activity, negative = less viability": "inactive: -1.59%"}
{"molecule": "COc1cc2c(cc1OC)C(C)N(C(=O)c1c(-c3ccccc3)noc1C)CC2", "note": "(configuration not stated)", "Potency": "inconclusive [cytotoxic, partial curve]"}
{"molecule": "COc1ccc(Cn2c(C3CC3)nc3ccc(NC(=O)c4cccnc4)cc3c2=O)cc1", "Potency": "active: 10.3 µM"}
{"molecule": "N#Cc1cc([N+](=O)[O-])ccc1NCCCn1ccnc1", "activity, negative = less viability": "inactive: -4.84%"}
{"molecule": "CCCCNC(=S)N(C)/N=C/c1ccccc1C(=O)O", "activity, negative = less viability": "inactive: -0.602%"}
{"molecule": "Cc1cc(C(=O)NNC(=O)Nc2ccc(Cl)cc2)no1", "activity, negative = less viability": "inactive: 12%"}
{"molecule": "Cc1cc(C(=O)Nc2ccc(Cl)cc2)on1", "Potency": "inconclusive [cytotoxic, partial curve]"}
{"molecule": "Oc1cc2c(cc1C(c1ccc(Br)cc1)N1CCCC1)OCO2", "note": "(configuration not stated)", "Potency": "inconclusive [cytotoxic, single point]"}
{"molecule": "COc1cc(CNc2ccc3[nH]c(=O)[nH]c3c2)ccc1OCc1cccc(C)c1", "Potency": "inconclusive [cytotoxic, partial curve]"}
{"molecule": "O=C(Nc1nc2ccccc2[nH]1)c1ccccc1O", "activity, negative = less viability": "inactive: -16.8%"}
{"molecule": "CCc1c(C2(O)CCCCC2)[nH]c2c(C(=O)OC)cc(Cl)cc12", "Potency": "inconclusive [cytotoxic, single point]"}
{"molecule": "COc1ccc(CN2CCN(C(c3ccc(F)cc3)c3ccc(F)cc3)CC2)c(OC)c1OC", "Potency": "inconclusive [cytotoxic, single point]"}
{"molecule": "N#C/C(=C(/O)c1ccc(Cl)cc1)c1nc2ccccc2[nH]1", "activity, negative = less viability": "inactive: 2.84%"}
{"molecule": "CCN(CC)CCCNc1nc2ccccc2c2nc(-c3ccncc3)nn12", "Potency": "inconclusive [cytotoxic, single point]"}
{"molecule": "COC(=O)NCC(c1ccco1)N1CCN(c2ccccc2)CC1", "note": "(configuration not stated)", "activity, negative = less viability": "inactive: 3.1%"}
{"molecule": "CCCC1=Nc2cc(C(=O)N3CCC(C(=O)OCC)CC3)ccc2Sc2ccccc21", "Potency": "inconclusive [cytotoxic, single point]"}
{"molecule": "C[C@@H]1CN([C@@H](C)CO)S(=O)(=O)c2ccc(Br)cc2O[C@H]1CN(C)C(=O)Nc1ccc(C(F)(F)F)cc1", "Potency": "inconclusive [cytotoxic, single point]"}
{"molecule": "CCOC(=O)c1cnc2ccc(OCC)cc2c1NCc1ccccc1", "activity, negative = less viability": "inactive: -11.8%"}
{"molecule": "Cc1ccc2nc(-c3ccccn3)c(Nc3ccccc3C)n2c1", "Potency": "active: 13 µM"}
{"molecule": "Brc1ccccc1CN1CCN(Cc2c[nH]c3ccccc23)CC1", "Potency": "active: 7.31 µM"}
{"molecule": "CC(C)c1ccc2oc(-c3cc(N)ccc3O)nc2c1", "activity, negative = less viability": "inactive: -9.95%"}
{"molecule": "Cc1cccc(-c2ccc3[nH]c4c(c3c2)CCN2C[C@@H]([C@H](C)O)[C@@H](N(C)C(=O)NC3CCCCC3)C[C@@H]42)c1", "Potency": "inconclusive [cytotoxic, partial curve]"}
{"molecule": "CCOC(=O)c1ccc(O)c(-n2cc3c(c2-c2ccccc2)c(=O)n(C)c(=O)n3C)c1", "activity, negative = less viability": "inactive: 0.646%"}
{"molecule": "CC(C)C[C@H](NC(=O)c1[nH]cnc1C(=O)Nc1ccc(CNC(=O)OC(C)(C)C)cc1)C(=O)OCc1ccccc1", "activity, negative = less viability": "inconclusive: -32.6% [cytotoxic]"}
{"molecule": "c1cncc(-c2nnc3sc(-c4ccco4)nn23)c1", "Potency": "inconclusive [cytotoxic, partial curve]"}
{"molecule": "O=C(N[C@@H](Cc1ccccc1)C(=O)N1CCC2(CC1)NCCc1[nH]cnc12)c1cccc(Br)c1", "Potency": "inconclusive [cytotoxic, single point]"}
{"molecule": "CCN1CCN(Cc2ccc(NC(=O)c3ccc(C)c(NC(=O)c4c[nH]c5cc(C(F)(F)F)ccc5c4=O)c3)cc2C(F)(F)F)CC1", "Potency": "active: 3.26 µM"}
{"molecule": "Cc1cc2cc(C(c3nnnn3Cc3ccco3)N3CCc4ccccc4C3)c(=O)[nH]c2cc1C", "note": "(configuration not stated)", "Potency": "inconclusive [cytotoxic, partial curve]"}
{"molecule": "CCCOc1ccc(CNC(=S)N/N=C/c2ccc([N+](=O)[O-])cc2)cc1", "Potency": "inconclusive [cytotoxic, single point]"}
{"molecule": "COc1cc(CNCCc2c[nH]c3ccccc23)ccc1OCc1ccccc1F", "Potency": "inconclusive [cytotoxic, single point]"}
{"molecule": "CCOc1cc(-c2cc(-c3ccc(C)cc3)nc(N)c2C#N)ccc1O", "Potency": "active: 8.91 µM"}
{"molecule": "CCn1c(=O)cc(SCC(=O)N2CCN(C(=O)c3ccco3)CC2)c2ccccc21", "activity, negative = less viability": "inactive: -2.9%"}
{"molecule": "O=C(Nc1ccc(NC(=O)c2ccco2)cc1)c1ccc2c(c1)OCO2", "Potency": "inconclusive [cytotoxic, single point]"}
{"molecule": "Nc1cccc2c1C(=O)N(CCOc1ccccc1F)C2=O", "activity, negative = less viability": "inactive: -1.31%"}
{"molecule": "Nc1nc(N)c2c(ccc3c2ccn3Cc2cccc([N+](=O)[O-])c2)n1", "Potency": "active: 0.0184 µM"}
{"molecule": "Cc1cc(Br)cn2c(Cc3cccc(F)c3)c(-c3ccccc3)nc12", "Potency": "inconclusive [cytotoxic, single point]"}
{"molecule": "CN1CCN(CC(O)COc2ccc(C34CC5CC(CC(C5)C3)C4)cc2)CC1", "note": "(configuration not stated)", "Potency": "active: 18.4 µM"}
{"molecule": "COC(=O)NC(=S)Nc1ccc(Oc2ccc(Cl)cc2)c(Cl)c1", "Potency": "inconclusive [cytotoxic, single point]"}
{"molecule": "COc1ccc(NC(=O)Nc2cccc(C(F)(F)F)c2)cn1", "Potency": "inconclusive [cytotoxic, single point]"}
